IC50 is the fitted dose that halves viability relative to control wells, and lower means more sensitive; a fit beyond the top or the lowest dose is shown as a bound at that dose. For AUC the same curve is integrated over the 256-fold range of doses and scaled to a fraction; it is 1 without any effect and falls as sensitivity rises. The top dose, if marked as inferred, is not printed in the source and was worked back from the curve model. For part of these data: Where an entry number is given, a second screen of the drug exists; the two often differ.
Legend:
Experiment in all cases: Viability of human cancer cell lines after 72 h of drug (GDSC screen)
[1] = compound: Cc1ccc(-n2nc(C(C)(C)C)cc2NC(=O)Nc2ccc(OCCN3CCOCC3)c3ccccc23)cc1 [BIRB 0796]; conditions: top dose 10 µM; top dose inferred
Procedure: (§1)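 Human cancer cell lines in 384-well plates, medium with 10% serum, drug for 72 h over a 256-fold dose range (nine 2-fold or five 4-fold steps up to the top dose). Adherent lines were fixed and stained with the nucleic acid dye Syto60, suspension lines read with resazurin; signal relative to control wells, capped at 0 and 100%. One two-parameter sigmoid per drug and line, fitted in a mixed model over all curves with the slope shared within a line.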

[2] = compound: O=C1NC(=O)c2c1c(-c1ccccc1Cl)cc1[nH]c3ccc(O)cc3c21 [Wee1 inhibitor 681640]; conditions: top dose 2 µM; top dose inferred
Procedure: as §1

[3] = compound: Cc1cc(N2CCOCC2)cc2[nH]c(-c3c(NC[C@@H](O)c4cccc(Cl)c4)cc[nH]c3=O)nc12 [BMS-536924]; conditions: top dose 4 µM; screen: GDSC drug entry 1091; top dose inferred
Procedure: as §1

[4] = compound: NC(=O)c1ccc(N(C(N)=O)c2c(F)cccc2F)nc1-c1ccc(F)cc1F [VX-702]; conditions: top dose 2 µM; top dose inferred
Procedure: as §1

[5] = compound: O=C(c1cc(Cc2n[nH]c(=O)c3ccccc23)ccc1F)N1CCN(C(=O)C2CC2)CC1 [Olaparib]
Procedure: as §1

[6] = compound: Cc1cccc(-c2[nH]c(C(C)(C)C)nc2-c2ccc3nccnc3c2)n1 [SB-525334]; conditions: top dose 20 µM; top dose inferred
Procedure: as §1

[7] = compound: CC(C)=CC[C@@H](O)C1=CC(=O)c2c(O)ccc(O)c2C1=O [Shikonin]; conditions: top dose 16 µM; top dose inferred
Procedure: as §1

[8] = top dose 5 µM, screen: GDSC drug entry 1017, top dose inferred
[9] = top dose 10 µM, screen: GDSC drug entry 1495

Row | Cell Line | AUC [1] | IC50 [1] [µM] | AUC [2] | IC50 [2] [nM] | AUC [3] | IC50 [3] [µM] | AUC [4] | IC50 [4] [nM] | AUC [5, 8] | IC50 [5, 8] [µM] | AUC [5, 9] | IC50 [5, 9] [µM] | AUC [6] | IC50 [6] [µM] | AUC [7] | IC50 [7] [nM]
1 | NCI-H2444 (non-small cell lung carcinoma, adherent) | 0.981 | > 10 | 0.988 | > 2000 | 0.967 | > 4 | 0.988 | > 2000 | 0.988 | > 5 | 0.985 | > 10 | 0.979 | > 20 | 0.68 | 3440
2 | NCI-H2452 (mesothelioma, adherent) | 0.952 | > 10 | 0.982 | > 2000 | 0.919 | > 4 | 0.984 | > 2000 | 0.984 | > 5 | 0.918 | > 10 | 0.984 | > 20 | 0.853 | > 16000
3 | OE19 (oesophagus, adherent) | 0.969 | > 10 | 0.955 | > 2000 | 0.978 | > 4 | 0.981 | > 2000 | 0.985 | > 5 | 0.942 | > 10 | 0.986 | > 20 | 0.587 | 1790
4 | OE33 (oesophagus, adherent) | 0.976 | > 10 | 0.954 | > 2000 | 0.968 | > 4 | 0.983 | > 2000 | 0.983 | > 5 | 0.978 | > 10 | 0.831 | 16.1 | 0.603 | 2020
5 | OSC-20 (head and neck, adherent) | 0.982 | > 10 | 0.907 | > 2000 | 0.93 | > 4 | 0.965 | > 2000 | 0.982 | > 5 | 0.918 | > 10 | 0.956 | > 20 | 0.272 | 196
6 | OVMIU (ovary, adherent) | 0.955 | > 10 | 0.885 | > 2000 | 0.888 | > 4 | 0.981 | > 2000 | 0.981 | > 5 | 0.905 | > 10 | 0.849 | > 20 | 0.736 | 5670
7 | P12-ICHIKAWA (T-cell lymphoblastic leukaemia, suspension) | 0.993 | > 10 | 0.993 | > 2000 | 0.994 | > 4 | 0.989 | > 2000 | 0.978 | > 5 | 0.991 | > 10 | 0.981 | > 20 | 0.523 | 1140
8 | PA-TU-8902 (pancreas, adherent) | 0.982 | > 10 | 0.965 | > 2000 | 0.814 | 2.65 | 0.983 | > 2000 | 0.98 | > 5 | 0.93 | > 10 | 0.969 | > 20 | 0.652 | 2850
9 | PANC-03-27 (pancreas, adherent) | 0.965 | > 10 | 0.839 | 1240 | 0.98 | > 4 | 0.984 | > 2000 | 0.988 | > 5 | 0.968 | > 10 | 0.829 | 11.3 | 0.319 | 323
10 | PANC-04-03 (pancreas, adherent) | 0.964 | > 10 | 0.965 | > 2000 | 0.881 | > 4 | 0.965 | > 2000 | 0.967 | > 5 |  |  | 0.952 | > 20 | 0.59 | 2040
11 | PC-3 [JPC-3] (lung adenocarcinoma, adherent) | 0.964 | > 10 | 0.963 | > 2000 | 0.921 | > 4 | 0.981 | > 2000 | 0.981 | > 5 | 0.943 | > 10 | 0.951 | > 20 | 0.522 | 1170
12 | PCI-15A (head and neck, adherent) | 0.807 | 5.18 | 0.362 | 51.9 | 0.97 | > 4 | 0.792 | 916 | 0.988 | > 5 | 0.981 | > 10 | 0.987 | > 20 | 0.471 | 832
13 | PE/CA-PJ15 (head and neck, adherent) | 0.944 | > 10 | 0.869 | > 2000 | 0.966 | > 4 | 0.979 | > 2000 | 0.958 | > 5 | 0.954 | > 10 | 0.955 | > 20 | 0.564 | 1520
14 | RH-41 (rhabdomyosarcoma, adherent) | 0.906 | 9.75 | 0.945 | > 2000 | 0.525 | 0.289 | 0.985 | > 2000 | 0.97 | > 5 | 0.959 | > 10 | 0.986 | > 20 | 0.444 | 723
15 | RPMI-2650 (head and neck, adherent) | 0.976 | > 10 | 0.927 | > 2000 | 0.849 | 3.39 | 0.974 | > 2000 | 0.96 | > 5 | 0.842 | 7.9 | 0.971 | > 20 | 0.368 | 419
16 | SAS (head and neck, adherent) | 0.904 | > 10 | 0.884 | > 2000 | 0.915 | > 4 | 0.958 | > 2000 | 0.942 | > 5 | 0.869 | > 10 | 0.963 | > 20 | 0.494 | 963
17 | SBC-5 (small cell lung carcinoma, adherent) | 0.993 | > 10 | 0.988 | > 2000 | 0.987 | > 4 | 0.99 | > 2000 | 0.975 | > 5 | 0.971 | > 10 | 0.919 | > 20 | 0.445 | 731

Reference: the supplement of paper PMC4967469
